Test results taken from PubChem BioAssay AID720708 (National Center for Advancing Translational Sciences (NCATS), 2013).
Among all 360,000 compounds or so, about 660 (0.18%) were called active. Inconclusive results, whose numbers are uncertain, are shown with a selection of clear calls. Calls come from the whole dose curve; as a rule, active = well fitted inhibition curve with a large enough effect; inconclusive = small, poorly fitted or top-dose-only effect; inactive = no such curve, though single readings can be large or run the other way. Potencies of inconclusive entries are left out as doubtful fits.

molecular target: Rap guanine nucleotide exchange factor 4 (Homo sapiens) (UniProt Q8WZA2); test: qHTS for Antagonist of cAMP-regulated guanine nucleotide exchange factor 2 (EPAC2): primary screen; conditions: EPAC2 GEF exchange of Rap1B-BODIPY-GDP, fluorescence; activity, negative = inhibition: at 114 µM (top of the series) unless noted; note: nearly all actives have a fitted effect of over 45% in size
Sequence of UniProt Q8WZA2 (Q8WZA2 whole entry, looked up): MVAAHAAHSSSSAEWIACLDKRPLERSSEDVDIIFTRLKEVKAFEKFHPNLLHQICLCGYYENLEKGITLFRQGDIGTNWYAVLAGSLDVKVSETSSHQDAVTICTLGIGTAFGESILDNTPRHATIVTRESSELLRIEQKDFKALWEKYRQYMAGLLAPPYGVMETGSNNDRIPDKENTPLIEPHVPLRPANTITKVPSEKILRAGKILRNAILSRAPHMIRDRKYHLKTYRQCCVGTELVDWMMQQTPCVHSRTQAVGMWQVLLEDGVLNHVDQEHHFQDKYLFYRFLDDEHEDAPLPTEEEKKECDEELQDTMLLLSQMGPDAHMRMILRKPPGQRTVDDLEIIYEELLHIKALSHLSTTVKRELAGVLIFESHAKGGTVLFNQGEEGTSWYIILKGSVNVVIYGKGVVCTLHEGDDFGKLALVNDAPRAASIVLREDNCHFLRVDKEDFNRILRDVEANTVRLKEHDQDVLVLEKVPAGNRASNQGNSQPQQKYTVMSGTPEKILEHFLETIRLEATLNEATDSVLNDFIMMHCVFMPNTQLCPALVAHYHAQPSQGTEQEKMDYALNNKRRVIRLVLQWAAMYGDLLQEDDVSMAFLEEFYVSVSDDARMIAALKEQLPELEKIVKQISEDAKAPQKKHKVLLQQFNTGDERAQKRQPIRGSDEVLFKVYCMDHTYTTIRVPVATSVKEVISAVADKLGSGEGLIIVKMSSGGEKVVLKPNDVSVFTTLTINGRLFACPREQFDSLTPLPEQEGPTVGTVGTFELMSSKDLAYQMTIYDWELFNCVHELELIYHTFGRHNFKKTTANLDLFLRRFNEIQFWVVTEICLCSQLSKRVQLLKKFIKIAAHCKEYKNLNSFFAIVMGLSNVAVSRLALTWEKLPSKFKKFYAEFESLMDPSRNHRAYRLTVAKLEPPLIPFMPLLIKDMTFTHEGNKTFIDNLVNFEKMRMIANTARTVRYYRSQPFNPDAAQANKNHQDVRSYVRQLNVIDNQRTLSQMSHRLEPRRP
% is set by controls: 0 for no effect and ±100 for the full control effect; potency is the fitted concentration of half-maximal effect; tags give direction and shape of the fitted curve.

| SMILES | Potency | activity, negative = inhibition |
| --- | --- | --- |
| C#CC1(NC(=S)Nc2cccc(OC)c2)CCCCC1 | inconclusive [inhibitor, partial curve] | – |
| O=C1NC[C@H](Cc2ccccc2)N(C[C@H]2CCCN2C[C@H](Cc2ccccc2)N2C[C@H](Cc3ccccc3)N(CC3CCCCC3)C(=O)C2=O)C1=O | inconclusive [inhibitor, full curve, poor fit] | – |
| Cn1c(CNC(=O)c2ccco2)nnc1SCC(=O)N1CCN(c2ccccc2F)CC1 | inactive | – |
| Clc1ccc(Nc2ncnc3c2cnn3-c2ccccc2)cc1 | inactive | – |
| Cc1ccc(C)c(OCCn2nnc3ccccc32)c1 | inconclusive [inhibitor, partial curve, poor fit] | – |
| C/C(=N\Nc1ccc([N+](=O)[O-])cc1)c1ccc(O)cc1 | inconclusive [inhibitor, partial curve] | – |
| COc1ccc(S(=O)(=O)N=N/C=C2\C=CC=CN2O)cc1OC | inactive | – |
| CCC(C(=O)Nc1c(C)cc(C)cc1C)N1CCCCCC1 (stereo not given) | inactive | – |
| CC1CN(c2nc3ccccc3nc2C(C#N)C(=O)NCc2ccc3c(c2)OCO3)CC(C)O1 (stereo not given) | inconclusive [inhibitor, single point] | – |
| Cc1cccc(-c2onc3ccc(C4(C)OCCO4)cc23)c1 | inconclusive [inhibitor, partial curve] | – |
| CCOC(=O)c1ccccc1CN1C(=O)c2ccccc2S1(=O)=O | inconclusive [inhibitor, single point] | – |
| O=C1CCC(C(=O)OC(C(=O)Nc2ccc([N+](=O)[O-])cc2Br)c2ccccc2)=NN1 (stereo not given) | – | inconclusive: -10.6% [inhibitor] |
| O=c1[nH]c(/C=C/c2ccc(Cl)cc2Cl)c([N+](=O)[O-])c(=O)[nH]1 | inconclusive [inhibitor, single point] | – |
| CC(C)CN(CC(C)C)C(=S)Nc1ccc(Cl)cc1 | inconclusive [inhibitor, partial curve] | – |
| Cc1noc(C)c1COc1ccc(C(=O)OCC(=O)OC(C)(C)C)cc1 | inconclusive [inhibitor, partial curve] | – |
| CC(=O)c1c(COC(=O)c2cccc(C)c2)nc2ccccc2[n+]1[O-] | inconclusive [inhibitor, partial curve, poor fit] | – |
| COc1nc(-c2ccccc2)c2cc(Br)ccc2n1 | inconclusive [inhibitor, full curve] | – |
| CC(=O)c1ccc(-c2ccc(C(=O)N3CCCc4ccccc43)o2)cc1 | inconclusive [inhibitor, partial curve] | – |
| COC(=O)c1cc(C)sc1NC(=O)CSc1ncccn1 | inconclusive [inhibitor, partial curve] | – |
| Cc1ccc(CN2CCCC2(C)C(=O)NC(C)C)cc1 (stereo not given) | – | inconclusive: -19.5% [inhibitor] |
| COc1cc(/C=C2\SC(=S)N(C(C(=O)O)c3ccccc3)C2=O)ccc1O (stereo not given) | inconclusive [inhibitor, partial curve] | – |
| CCCCCCCCOC(=O)C1=C(C)Nc2nnnn2C1c1cccs1 (stereo not given) | inconclusive [inhibitor, full curve] | – |

| SMILES | Potency | activity, negative = inhibition |
| --- | --- | --- |
| Cc1ccc(O)c(N=Cc2cc(Cc3ccccc3)cc([N+](=O)[O-])c2O)c1 | inconclusive [inhibitor, partial curve] | – |
| Cc1cc(C)nc(NC(=O)c2cccc([N+](=O)[O-])c2)c1 | inconclusive [inhibitor, single point] | – |
| COc1ccc(NS(=O)(=O)c2ccc3nc(COc4ccc(Cl)c(C)c4)[nH]c3c2)cc1 | inconclusive [inhibitor, partial curve] | – |
| COc1ccc2[nH]c(=O)c(-c3nnn(-c4ccc(F)cc4)n3)cc2c1 | inactive | – |
| CCOC(=O)C1CCN(C(=O)c2cc3cc(Cl)ccc3[nH]2)CC1 | inconclusive [inhibitor, single point] | – |
| COc1ccc(S(=O)(=O)NC2CCCCC2)c(C)c1C | inconclusive [inhibitor, partial curve] | – |
| CN1CCN(C(c2ccc(C(F)(F)F)cc2)c2ccc3cccnc3c2O)CC1 (stereo not given) | inactive | – |
| COc1ccc(CN2C[C@]3(CO)O[C@@H](CO)C[C@@H]3S2(=O)=O)cc1 | inactive | – |
| O=C(Nc1ccc(F)cc1)c1ccc(S(=O)(=O)N2CCOCC2)o1 | – | inconclusive: -5.33% [inhibitor] |
| C=CCc1cccc2cc(C(=O)Nc3ccc(S(=O)(=O)Nc4nnc(CC)s4)cc3)c(=O)oc12 | inconclusive [inhibitor, single point] | – |
| CN(C)CCCN(C(=O)c1ccc(S(=O)(=O)N2CCc3ccccc3C2)cc1)c1nc2ccc(F)cc2s1 | inconclusive [inhibitor, partial curve] | – |
| CCCCCC(O)(c1ccc(OCC)cc1)C(CN1CCOCC1)c1ccccc1 (stereo not given) | inconclusive [inhibitor, full curve, poor fit] | – |
| CCCC1=C(C(=O)OCC)C(c2ccc(OC)c(CSc3ccccn3)c2)C(C#N)=C(N)O1 (stereo not given) | inconclusive [inhibitor, single point] | – |
| COc1ccc(NC(=S)NC(C)C(c2ccccc2)N2CCOCC2)cc1 (stereo not given) | inconclusive [inhibitor, partial curve] | – |
| COc1ccc(C(C[N+](=O)[O-])c2c(C)cc3ccccn23)c(OC)c1 (stereo not given) | inconclusive [inhibitor, partial curve] | – |
| O=C(COc1cccc2ccccc12)Nc1ccc(Cl)cc1C(=O)O | inconclusive [inhibitor, partial curve] | – |
| O=C1c2cc([N+](=O)[O-])ccc2-c2ncccc21 | inactive | – |
| CN1CCC(N(C)C(=O)c2cc(-c3ccccc3Cl)nc3ccccc23)CC1 | – | inconclusive: -19.3% [inhibitor] |
| CC(C)NC(=O)c1ccc2c(c1)S(=O)(=O)c1ccccc1C2=O | inconclusive [inhibitor, single point] | – |
| O=C(/C=C/Sc1ccc(C(F)(F)F)cn1)c1ccccc1 | inactive | – |
| Cc1ccc(Oc2cc(NN3CCCCC3)c([N+](=O)[O-])cc2[N+](=O)[O-])c(Cl)c1 | inconclusive [inhibitor, single point] | – |
| CN(CC(=O)Nc1ccccc1Cl)C(=O)c1ccc(-c2cccc(C(F)(F)F)c2)o1 | inconclusive [inhibitor, full curve] | – |

| SMILES | Potency | activity, negative = inhibition |
| --- | --- | --- |
| COc1ccc2c(c1)C1=NN(/C(C)=C/C(C)=O)C(c3cccc(F)c3)C1CC2 (stereo not given) | inconclusive [inhibitor, full curve] | – |
| O=C(Nc1ccccc1Br)c1ccc(OC(=S)N2CCOCC2)cc1 | inactive | – |
| COc1ccc(-c2nc3ccc(Cl)cn3c2Cc2ccsc2)cc1OC | inconclusive [inhibitor, partial curve] | – |
| O=C(C1=C(O)C(=O)N(CCc2ccccc2)C1c1ccncc1)c1cc2ccccc2o1 (stereo not given) | inconclusive [inhibitor, partial curve] | – |
| Cc1ccc(S(=O)(=O)N2C(c3ccc(Cl)c(Cl)c3)CC=C(C(=O)O)C2c2cccc(Cl)c2)cc1 (stereo not given) | inconclusive [inhibitor, single point] | – |
| COC(=O)c1c(-c2ccccc2)c(-c2ccccc2)nn(C)c1=O | inconclusive [inhibitor, full curve] | – |
| COC(=O)CCC/C=C1/SCC(NC(=O)c2ccccc2)C1=O (stereo not given) | inactive | – |
| CCCCNC(=O)C1(C)CCN1C(=O)c1cc(-c2ccccc2)cs1 (stereo not given) | inactive | – |
| O=C(CCCOc1ccc(Cl)cc1Cl)N/N=C/c1ccccc1 | inactive | – |
| COc1ccc(S(=O)(=O)N(C)C[C@@H]2Oc3c(NS(=O)(=O)c4cn(C)cn4)cccc3C(=O)N([C@@H](C)CO)C[C@@H]2C)cc1 | inconclusive [inhibitor, single point] | – |
| Cc1ccc(-c2cc(-c3n[nH]c(=S)o3)c3ccccc3n2)cc1 | inconclusive [inhibitor, partial curve] | – |
| CCC(C)n1c(NC(=O)c2ccccc2)c(C#N)c2nc3ccccc3nc21 (stereo not given) | inconclusive [inhibitor, single point] | – |
| Cc1occc1C(=O)NC1CCCCCCC1 | inactive | – |
| CCC(=O)Oc1ccc(C(=O)Nc2ccc([N+](=O)[O-])cc2)cc1 | inactive | – |
| Cc1cccc(C(=O)C(O)(c2ccccc2)C2CCCCC2=O)c1 (stereo not given) | inconclusive [inhibitor, full curve, poor fit] | – |
| CCOc1ccc(-n2c(=S)sc3c(=O)[nH]c(SCC(=O)NC4CCCCC4)nc32)cc1 | inconclusive [inhibitor, full curve, poor fit] | – |
| COC(=O)C1=C(C(=O)OC)[C@@H]2Nc3ccccc3[C@@]23C[C@@H](C(=O)OC)N(C(=O)c2ccco2)C3=N1 | inconclusive [inhibitor, partial curve] | – |
| O=C(Cn1cc(COc2ccc(Cl)c(Cl)c2)nn1)NS(=O)(=O)c1ccccc1OC(F)(F)F | inconclusive [inhibitor, partial curve] | – |
| O=C(O)CN1C(=O)/C(=C\c2cc(Br)ccc2OCc2ccc([N+](=O)[O-])cc2)SC1=S | inconclusive [inhibitor, full curve, poor fit] | – |
| CC(=O)Oc1c(Sc2ccccc2[N+](=O)[O-])c(C)nn1C(C)(C)C | active: 50.1 µM | – |
| CCN(C(=O)N(CC)c1ccccc1)c1ccccc1 | inconclusive [inhibitor, partial curve] | – |
